Results published in the supplement of paper PMC7826260.
The other results are listed elsewhere or left out. Cleavage of a single-stranded DNA pool by Rep nickase domains was read by sequencing at 3 µM enzyme and 37 °C for 1 h; the strands have 90 letters, of which the middle is given. Values are log2 of uncut reads against the no-enzyme pool; the lower, the more was cut; hits are not called. Shares of all reads are compared; uncut strands gain when others are lost, and binding without cutting may add a little.

Experiments:
Test in all cases: uncleaved DNA left, log2 of reads against the no-enzyme library (log2 ratio); higher = less cleavage (more negative = more Rep cleavage of the k-mer); sequences stand for … in CTCGTCCG…ACCGGAGA
[1] = test system: T1, Rep nickase domain of Muscovy duck circovirus
T1 sequence (Rep 1-111, printed without the tag): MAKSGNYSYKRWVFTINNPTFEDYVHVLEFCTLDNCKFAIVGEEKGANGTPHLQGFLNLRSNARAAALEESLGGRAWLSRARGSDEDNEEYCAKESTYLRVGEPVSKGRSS
Method: (§1)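 A pool of 90-nt single-stranded DNAs with seven random bases just before the constant AC of the nick site (name = the seven bases) was cut by 3 µM recombinant His6-SUMO-tagged Rep nickase domain (300 nM DNA, 50 mM HEPES pH 8.0, 50 mM NaCl, 1 mM MnCl2, 1 h, 37 °C, three replicates). Uncut DNA was amplified and sequenced.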

[2] = test system: T2, Rep nickase domain of banana bunchy top virus
T2 sequence (Rep 1-94, printed without the tag): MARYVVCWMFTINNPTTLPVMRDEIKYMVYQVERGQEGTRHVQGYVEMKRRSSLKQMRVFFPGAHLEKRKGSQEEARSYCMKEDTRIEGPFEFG
Method: as §1

[3] = test system: T3, Rep nickase domain of cabbage leaf curl virus
T3 sequence (Rep 1-116, printed without the tag): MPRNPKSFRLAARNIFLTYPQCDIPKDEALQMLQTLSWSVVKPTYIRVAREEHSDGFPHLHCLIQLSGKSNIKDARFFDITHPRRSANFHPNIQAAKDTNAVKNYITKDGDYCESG
Method: as §1

[4] = test system: T4, Rep nickase domain of chickpea chlorotic dwarf virus
T4 sequence (Rep 1-124, printed without the tag): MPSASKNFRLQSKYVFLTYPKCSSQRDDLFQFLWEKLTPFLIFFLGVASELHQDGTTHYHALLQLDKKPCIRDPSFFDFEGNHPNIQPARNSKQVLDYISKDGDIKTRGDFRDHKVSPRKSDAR
Method: as §1

[5] = test system: T5, Rep nickase domain of faba bean necrotic yellows virus
T5 sequence (Rep 1-98, printed without the tag): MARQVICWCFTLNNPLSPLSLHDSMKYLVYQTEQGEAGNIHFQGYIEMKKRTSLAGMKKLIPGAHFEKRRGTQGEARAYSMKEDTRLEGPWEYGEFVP
Method: as §1

[6] = test system: T6, Rep nickase domain of maize striate mosaic virus
T6 sequence (Rep 1-117, printed without the tag): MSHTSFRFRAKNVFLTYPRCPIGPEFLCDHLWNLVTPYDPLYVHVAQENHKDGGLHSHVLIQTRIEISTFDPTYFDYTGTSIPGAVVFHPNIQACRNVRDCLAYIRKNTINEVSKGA
Method: as §1

[7] = test system: T7, Rep nickase domain of porcine circovirus 2
T7 sequence (Rep 2-116, printed without the tag): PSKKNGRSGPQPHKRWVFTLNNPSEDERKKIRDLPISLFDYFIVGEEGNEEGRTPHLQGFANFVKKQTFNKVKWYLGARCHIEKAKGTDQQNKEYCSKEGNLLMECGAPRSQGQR
Method: as §1

[8] = test system: T8, Rep nickase domain of tomato golden mosaic virus
T8 sequence (Rep 1-124, printed without the tag): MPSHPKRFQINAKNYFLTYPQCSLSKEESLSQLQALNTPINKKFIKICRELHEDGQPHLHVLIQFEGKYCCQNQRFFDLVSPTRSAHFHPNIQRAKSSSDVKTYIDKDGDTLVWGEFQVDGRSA
Method: as §1

[9] = test system: T9, Rep nickase domain of tomato yellow leaf curl virus
T9 sequence (Rep 1-136, printed without the tag): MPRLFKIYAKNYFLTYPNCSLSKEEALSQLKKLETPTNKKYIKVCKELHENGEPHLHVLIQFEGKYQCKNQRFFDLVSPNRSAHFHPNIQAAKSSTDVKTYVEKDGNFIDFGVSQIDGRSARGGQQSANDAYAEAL
Method: as §1

[10] = test system: T10, Rep nickase domain of wheat dwarf virus
T10 sequence (Rep 1-137, printed without the tag): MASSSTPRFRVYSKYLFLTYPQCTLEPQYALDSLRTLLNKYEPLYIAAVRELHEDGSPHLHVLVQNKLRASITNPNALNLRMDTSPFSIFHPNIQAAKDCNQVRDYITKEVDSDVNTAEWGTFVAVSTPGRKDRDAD
Method: as §1

Sequence	uncleaved DNA left (log2) [1]	uncleaved DNA left (log2) [2]	uncleaved DNA left (log2) [3]	uncleaved DNA left (log2) [4]	uncleaved DNA left (log2) [5]	uncleaved DNA left (log2) [6]	uncleaved DNA left (log2) [7]	uncleaved DNA left (log2) [8]	uncleaved DNA left (log2) [9]	uncleaved DNA left (log2) [10]
TCCATGG	0.0626	-0.0104	0.123	0.465	-0.109	-0.143	0.108	0.0226	-0.124	-0.0655
TACACTG	-0.0156	-0.042	-0.151	0.215	-0.0717	0.507	-0.0772	-0.0948	-0.079	0.00376
TCTCACT	-0.0276	-0.0847	0.0883	-2.25	-0.0825	-0.243	-0.651	0.025	-0.0581	-0.221
ACCCTAC	-0.103	-0.115	-0.407	-1.7	-0.1	-0.884	0.028	0.00301	-0.232	-0.0782
CCGGCTA	-0.109	-0.196	0.112	-0.153	-0.0988	0.2	-0.0703	0.0122	-0.135	-0.0652
ACTAGCC	0.0304	-0.0426	-0.268	-0.353	0.142	-0.755	0.158	0.0598	0.0138	0.0621
ACCCAAC	-0.114	-0.0576	-0.187	-1.45	0.0649	-0.806	-0.105	-0.0457	-0.188	0.00383
CACGATT	-0.105	-0.0895	-0.497	-2.67	-0.00291	-0.442	-1.59	-0.0489	-0.139	-0.0492
ATATGGT	-0.222	-0.0256	0.112	0.763	0.0809	1.32	-0.424	0.0983	-0.0982	-0.0333
CATTCAA	-0.164	-0.192	-0.139	-0.433	-0.0882	-0.96	-0.164	-0.00457	0.0317	-0.0213
CAATAGA	0.0324	-0.037	-0.341	-0.925	-0.014	-1.05	-0.0506	0.00125	-0.0477	0.0611
ATTCTGA	0.151	-0.037	-0.0378	0.29	-0.0469	0.156	0.0562	-0.0263	-0.151	0.0212
GGCGGCA	0.0554	0.0269	0.539	1.39	0.0111	1.96	0.185	0.0465	-0.0603	-0.102
ACGCCCC	-0.0824	0.0271	0.00165	0.0553	-0.0853	-0.059	-0.477	-0.0083	-0.0525	-0.0911
CTGGCAA	0.000338	0.0298	-0.016	0.0793	0.0664	-0.491	0.145	0.0911	-0.00445	-0.00112
GTTAGTA	0.0714	0.106	0.449	0.919	0.0679	1.89	0.273	0.191	0.212	0.179
ACAGGTT	0.0242	-0.0221	-0.073	-0.259	-0.066	0.618	0.0576	0.0571	-0.229	-0.0947
GGCGTGG	0.0817	0.103	0.132	0.539	-0.0489	1.14	0.0803	0.107	-0.0818	0.0242
GTCTTTT	-0.309	-0.0113	0.299	0.599	0.052	1.71	-1.24	0.0725	0.0357	0.0269
GAATGAG	0.00986	0.0265	-0.687	-0.114	0.0629	-1.01	0.0823	-0.0257	0.109	-0.0403

Sequence	uncleaved DNA left (log2) [1]	uncleaved DNA left (log2) [2]	uncleaved DNA left (log2) [3]	uncleaved DNA left (log2) [4]	uncleaved DNA left (log2) [5]	uncleaved DNA left (log2) [6]	uncleaved DNA left (log2) [7]	uncleaved DNA left (log2) [8]	uncleaved DNA left (log2) [9]	uncleaved DNA left (log2) [10]
TTGAATT	-0.0381	-0.518	-0.0541	-2.34	-0.229	-0.416	-2.82	-0.0788	0.0272	0.0113
ACGATCC	0.0312	0.158	0.108	0.242	0.109	-0.0276	0.195	0.107	-0.0332	-0.0291
CCTTCAC	-0.00644	-0.0865	-0.127	-0.567	-0.167	-0.824	0.0191	-0.0202	-0.149	0.00737
AAGCTGT	0.147	0.108	0.466	1.69	0.101	1.9	0.152	0.297	-0.126	0.162
GGACGCG	0.000292	0.0851	-0.686	0.161	-0.0468	-0.46	0.101	-0.0818	-0.0758	-0.149
CCGTTTA	-0.106	-0.0087	-0.0887	-0.733	-0.237	-0.251	-0.228	-0.117	-0.161	-0.126
ACGGTAT	0.0274	-0.0964	0.0481	0.212	-0.0774	0.453	0.00517	0.0461	-0.098	-0.0322
TGACAGT	0.0192	0.129	0.628	1.16	0.098	1.65	0.0925	0.0272	0.0366	0.16
ATTGCTA	-0.00183	-0.0185	-0.695	-0.87	0.0565	-1.03	-0.0279	0.00235	0.0922	0.0807
TCGCAGA	0.0433	-0.0776	-0.0906	-0.0994	-0.00808	-0.64	-0.102	-0.0103	-0.0943	-0.0465
CCACATT	0.183	0.00755	-0.462	-2.12	0.22	-0.254	-0.226	0.00575	0.283	-0.00148
TGGCAAG	0.0562	0.0472	-0.578	-0.238	0.0213	-0.849	0.215	0.00147	-0.0144	-0.0227
ACTGATG	-0.0142	-0.0684	-0.455	-0.126	0.00808	-0.885	0.0574	0.0352	0.157	-0.0158
GTATAGG	0.102	0.0389	0.423	1.21	0.212	1.44	0.179	0.167	0.0467	0.0957
GGGGGGA	0.0334	-0.00997	0.893	1.75	0.0338	2.15	0.238	0.0678	-0.000559	0.209
AGTTGTT	-3.29	-2.85	-2.46	-2.39	-1.29	-0.924	-3.59	-0.677	-0.032	-1.71
TTAAGTA	0.132	0.107	-0.715	-2.35	0.048	-0.346	-0.0685	-0.00953	0.0186	-0.283
AAGCGAA	-0.00179	0.0317	-0.0551	0.263	0.0462	-0.0798	0.0132	0.0527	-0.0991	-0.0774
TTTGGAA	0.1	-0.0106	0.258	0.502	-0.00811	0.533	0.114	-0.000543	0.0105	-0.0935
GCATTGG	0.0598	-0.06	-0.675	-0.558	0.0605	-0.979	0.0699	-0.0308	0.149	-0.0539

Sequence	uncleaved DNA left (log2) [1]	uncleaved DNA left (log2) [2]	uncleaved DNA left (log2) [3]	uncleaved DNA left (log2) [4]	uncleaved DNA left (log2) [5]	uncleaved DNA left (log2) [6]	uncleaved DNA left (log2) [7]	uncleaved DNA left (log2) [8]	uncleaved DNA left (log2) [9]	uncleaved DNA left (log2) [10]
GCTTTTC	-0.101	-0.0268	0.141	0.401	-0.0461	0.0154	-0.0142	-0.00674	-0.0465	-0.0315
TCTCAGG	-0.115	-0.0872	0.456	1.28	-0.00288	1.73	-0.00951	-0.0136	-0.207	-0.0175
AGTCCTG	0.144	0.0262	0.118	0.669	-0.0657	1.57	0.0728	-0.045	0.1	0.142
CCGATGA	-0.0335	-0.107	0.205	0.487	-0.0419	-0.0623	0.0732	-0.0154	-0.0464	-0.0503
AGATGAA	-0.0153	-0.0491	0.278	0.734	0.00498	0.568	-0.104	0.0533	-0.075	0.031
CTTCAAG	0.0249	-0.0633	-0.791	-0.496	-0.0329	-1.2	0.205	-0.12	0.0174	0.015
GCTTGCC	0.0133	0.0726	0.0589	0.501	0.104	-0.344	0.11	0.0512	0.0488	0.0508
AGTCAGT	-0.0346	0.0399	-0.0604	-0.169	-0.148	-0.47	-3.17	0.0581	0.0408	-0.00228
GACTACG	0.0347	0.0587	-0.608	-0.812	0.0133	-0.801	0.191	-0.00242	0.0371	0.0756
TCCGTCT	0.103	-0.0618	0.149	-0.94	0.0414	-0.156	-0.0544	-0.0767	-0.0194	-0.0768
CGTGAAG	0.0343	-0.119	-0.809	-0.314	0.111	-0.951	0.115	-0.0991	0.00241	-0.119
TCTCGCC	0.00647	-0.135	-0.0638	-0.403	0.042	-0.823	-0.0277	-0.0341	-0.0707	-0.208
TATGAGA	-0.0103	-0.0642	-0.315	-0.848	0.0464	-1.3	0.0238	-0.136	-0.112	-0.0319
GGCTCAT	0.105	0.0971	0.854	1.89	0.0158	2.23	0.0981	0.0654	0.105	0.171
GACCCGG	-0.158	0.00533	0.431	1.36	-0.196	1.64	-0.04	0.0761	-0.16	-0.0897
TCTTGCA	0.0491	0.0196	-0.72	-0.718	0.012	-1.17	0.137	-0.191	0.129	-0.0167
GACTTTG	-0.106	-0.167	-0.257	-0.0922	-0.224	-0.498	-0.24	-0.131	-0.162	-0.177
ATCCATT	0.0352	0.0741	-0.11	-1.85	0.131	-1.02	-1.83	-0.0626	0.117	0.0516
TCAGAAC	0.0462	0.0838	0.23	-0.209	0.131	-0.26	0.142	0.00521	-0.0179	0.0245
CGTGAGC	-0.0557	-0.049	0.012	0.254	-0.00264	-0.298	-0.0602	-0.024	-0.0975	0.00564
